Data published in PubChem BioAssay AID540317 (National Center for Advancing Translational Sciences (NCATS), 2011).
About 2,200 (0.56%) of roughly 390,000 compounds were called active. Inconclusive results, whose numbers are uncertain, are shown with a selection of clear calls. Calls follow the shape of the dose curve; as a rule, active = well fitted inhibition curve with a large enough effect; inconclusive = small, poorly fitted or top-dose-only effect; inactive = no such curve, though single readings can be large or run the other way. Potencies beside an inconclusive call are fits to weak or partial responses and may not hold up.

target: Chromobox protein homolog 1 (Homo sapiens) (UniProt P83916); assay: HTS for Inhibitors of HP1-beta Chromodomain Interactions with Methylated Histone Tails; conditions: AlphaScreen HP1-beta / biotin-H3K9me3 peptide binding; series mostly up to 114 µM; also: nearly all actives have a fitted effect of over 70% in size
In short: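 HP1-beta protein (50 nM final) preincubated 30 min at room temperature with biotinylated H3(1-18)K9me3 peptide (50 nM) in PBS pH 7.4, 0.01% Tween-20, then compound added for 30 min. AlphaScreen streptavidin donor/nickel chelate acceptor beads (10 ug/mL final), 30 min dark, luminescence read.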
Potency is read from the fitted curve at half-maximal effect; tags tell the direction and shape of the fitted curve.

Chain of UniProt P83916 (P83916 whole entry, looked up): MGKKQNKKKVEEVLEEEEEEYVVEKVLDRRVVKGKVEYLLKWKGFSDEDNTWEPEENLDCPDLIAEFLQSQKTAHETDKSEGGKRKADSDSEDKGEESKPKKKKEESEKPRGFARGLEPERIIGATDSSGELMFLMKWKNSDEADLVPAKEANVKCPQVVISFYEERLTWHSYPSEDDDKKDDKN

Compound	Potency
CC(C)(C)Cc1nnc(NC(=O)c2ccc3c(c2)OCO3)s1	inconclusive: 22.4 µM [inhibitor, partial curve]
COc1ccc(CCC(=O)N2CCN(c3ccc(OC)cc3)CC2)cc1	inactive
CCOC(=O)C1=C(CSc2nc3c(cc2C#N)CCC3)OC(N)=C(C#N)C1c1ccccc1 (stereo not given)	inactive
Oc1ccc(Br)cc1CNc1ccccn1	inactive
COc1ccc(NC(=O)Cn2nc(-c3ccncc3)ccc2=O)cc1Cl	inactive
COc1ccc(-c2nc(-c3cccs3)c(-c3cccs3)[nH]2)cc1OC	inactive
COc1ccc(NC(=O)CSc2sc3c(O)cc(=O)[nH]c3c2C#N)c(OC)c1	inconclusive: 89.1 µM [inhibitor, single point]
CCOc1ccc(-c2nnc(SCC(=O)NC(C)(C)C)nc2-c2ccc(OCC)c(OC)c2)cc1OC	inactive
CN(C)CCCn1c(SCC(=O)Nc2sc3c(c2C#N)CCCC3)nnc1-c1ccncc1	inconclusive: 20 µM [inhibitor, full curve, poor fit]
Cc1occc1C(=O)Nc1sc2c(c1C(N)=O)CCCCC2	inactive
Cc1cc(C)c2nc(SCC(=O)Nc3ccccc3N3CCOCC3)c(C#N)cc2c1	inconclusive: 39.8 µM [inhibitor, single point]
COc1cccc2c1cc1c(=O)n(CC(=O)NC3CC3)nc(C)n12	inactive
O=c1c(=O)n(-c2cccc(Cl)c2)ccn1Cc1cccc(F)c1	inactive
CN1CCN(C(=S)c2ccc(N(C)C)cc2)CC1	inconclusive: 35.5 µM [inhibitor, partial curve, poor fit]
CCOCC(=O)Nc1ccc(-c2cn3cccnc3n2)cc1	inactive
CC1=C(C)/C(=N\OC(=O)/C=C/c2ccccc2)C=CC1=O	inconclusive: 3.55 µM [inhibitor, full curve]
CC(=O)N(/N=C1/C(=O)Nc2ccccc21)c1ccccc1	inconclusive: 79.4 µM [inhibitor, partial curve, poor fit]
Cc1noc(C)c1CSc1nnc(C)c(=O)[nH]1	inconclusive: 39.8 µM [inhibitor, single point]
CC(C(=O)Nc1ccc(N(C)C)cc1)N1C(=O)c2ccccc2S1(=O)=O (stereo not given)	inconclusive: 79.4 µM [inhibitor, partial curve]
Cc1ccc(-c2n[nH]c(=S)n2/N=C/C=C/c2ccccc2[N+](=O)[O-])cc1	inconclusive: 3.55 µM [inhibitor, single point]
Cc1ccc2oc(=O)c3cnn(CC(=O)Nc4cccc(C(F)(F)F)c4)c3c2c1	inactive
COc1ccc(C(=O)COC(=O)c2cccc(-n3cnnn3)c2)c(OC)c1	inactive
COc1ccc(C)cc1S(=O)(=O)N1CCOCC1	inconclusive: 10 µM [inhibitor, partial curve, poor fit]

Compound	Potency
C=CCOc1c(Br)cc(CNn2c(C)n[nH]c2=S)cc1OC	inconclusive: 79.4 µM [inhibitor, single point]
Cc1cc2c(cc1S(=O)(=O)N1CCN(c3ccc(Cl)cc3)CC1)OCCN2C	inconclusive: 14.1 µM [inhibitor, full curve]
CCCCC(=O)NNC(=S)NC(=O)c1cccc([N+](=O)[O-])c1	inconclusive: 20 µM [inhibitor, partial curve, poor fit]
Cc1ccc(/C=N/n2c(C3CCCCC3)n[nH]c2=S)cc1	inactive
Cc1cccc(C)c1NC(=S)N=Nc1c(O)n(C)c2ccc(S(=O)(=O)N3CCOCC3)cc12	inconclusive: 28.2 µM [inhibitor, single point]
Cc1cccc(NC(=S)N=Nc2c(O)[nH]c3ccccc23)c1	inconclusive: 22.4 µM [inhibitor, partial curve, poor fit]
Cc1c(C(c2ccc(N(C)C)cc2)c2c(C)n(C)n(-c3ccccc3)c2=O)c(=O)n(-c2ccccc2)n1C	inconclusive: 44.7 µM [inhibitor, single point]
Cc1ccc(OCCn2cc(/C=C(\C#N)C(=O)NCC3CCCO3)c3ccccc32)cc1 (stereo not given)	inconclusive: 31.6 µM [inhibitor, single point]
O=C(NC1CCN(Cc2ccccc2)CC1)c1ccccc1OCc1ccccc1Cl	inactive
CC1CCN(c2oc(-c3cccs3)nc2S(=O)(=O)c2ccc(Cl)cc2)CC1	inconclusive: 11.2 µM [inhibitor, full curve]
Cc1ccc(C)c(S(=O)(=O)c2cn(Cc3ccccc3)c3cc(F)c(F)cc3c2=O)c1	inconclusive: 39.8 µM [inhibitor, single point]
O=C1CCCC2=C1C(c1ccc(O)c(O)c1)Nc1ccc3ccccc3c12 (stereo not given)	inconclusive: 56.2 µM [inhibitor, partial curve, poor fit]
Cc1cc(-c2nnc3sc(C4CCCCC4)nn23)n[nH]1	inconclusive: 39.8 µM [inhibitor, single point]
c1ccc(Cc2nnc3sc(-c4ccco4)nn23)cc1	inconclusive: 11.2 µM [inhibitor, full curve, poor fit]
C=CCn1c(SCC(=O)NC(=O)Cc2ccccc2)nnc1-c1ccccc1F	inactive
Cc1c(Cl)c([N+](=O)[O-])nn1CCCC(=O)Nc1sc2c(c1C#N)CCC2	inconclusive: 25.1 µM [inhibitor, full curve]
CSc1ccccc1C(=O)Nc1cccc(C(C)=O)c1	inconclusive: 39.8 µM [inhibitor, single point]
O=C(Nc1nc2c(s1)CCCC2)C1CCCN1C(=O)c1cccs1 (stereo not given)	inactive
CCc1ccc2c(COC(=O)CNS(=O)(=O)c3ccc(NC(C)=O)cc3)cc(=O)oc2c1	inconclusive: 39.8 µM [inhibitor, single point]
CN(C)c1ccc(C(CNC(=O)c2ccc(F)cc2)c2c[nH]c3ccccc23)cc1 (stereo not given)	inconclusive: 22.4 µM [inhibitor, full curve]
COc1ccc(NC(=O)CCNS(=O)(=O)c2ccccc2F)cc1S(N)(=O)=O	inactive
OC(CNCCc1ccc(Cl)cc1)COCc1ccco1 (stereo not given)	inconclusive: 44.7 µM [inhibitor, partial curve]
